Measured values: PubChem BioAssay AID485344 (National Center for Advancing Translational Sciences (NCATS), 2010)
Out of some 340,000 compounds screened, about 6,900 (2%) were called active. Rule as the data show it: active = inhibition above about 30%; inactive = below that, where a call was filed. The list shows a part of the results, in another mix than the full data. Entries without a call were filed so in the source.

These molecules were tested against D(2) dopamine receptor (Homo sapiens) (UniProt P14416) (assay: HTS Assay for Allosteric Antagonists of the Human D2 Dopamine Receptor: Primary Screen for Antagonists). Conditions: HEK293 TREx D2 cells, calcium flux, dopamine EC80; at 10 µM; stronger effect = higher value.
Sequence of UniProt P14416 (P14416 whole entry, looked up): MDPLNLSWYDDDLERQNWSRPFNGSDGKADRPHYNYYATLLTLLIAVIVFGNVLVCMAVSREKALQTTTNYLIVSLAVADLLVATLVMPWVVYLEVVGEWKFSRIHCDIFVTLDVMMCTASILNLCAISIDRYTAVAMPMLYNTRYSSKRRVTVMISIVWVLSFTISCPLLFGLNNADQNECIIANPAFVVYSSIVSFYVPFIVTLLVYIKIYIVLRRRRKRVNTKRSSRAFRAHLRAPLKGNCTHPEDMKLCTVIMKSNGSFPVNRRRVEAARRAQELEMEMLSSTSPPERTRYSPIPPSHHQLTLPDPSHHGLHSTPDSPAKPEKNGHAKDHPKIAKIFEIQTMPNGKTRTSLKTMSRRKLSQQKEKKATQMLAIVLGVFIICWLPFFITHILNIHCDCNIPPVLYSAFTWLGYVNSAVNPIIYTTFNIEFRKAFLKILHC
How it was run: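 Overnight-induced (tetracycline, 30 C) HEK293 T-REx cells carrying force-coupled D2 receive a no-wash calcium dye, then compound, then EC80 dopamine at 180 s; signals are read kinetically throughout.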
Also: 0% is about no effect.

SMILES | inhibition
CCCCC(=O)Nc1cc(C)c(O)c(-c2nc3ncccc3o2)c1 | 7.78%
O=C(CC1N=C2c3ccccc3N=C(SCc3ccccc3F)N2C1=O)NCCc1ccccc1 (stereo unspecified) | -15.9%
CC1=C(C(=O)Nc2ccccc2)C(c2cccnc2)n2nc(SCc3ccccc3F)nc2N1 (stereo unspecified) | 2.29%
O=c1c2sc3ccccc3c2n(Cc2ccccc2F)c(=O)n1Cc1ccccc1 | 16.4%
COc1ccc(Cl)cc1NC(=O)c1cc(C)nc2c1c(C)nn2-c1ccccc1 | 10.7%
COc1cccc(CNC(=O)C2CCN(C(=O)N3CCOc4ccc(Cl)cc43)CC2)c1OC | 5.46%
Cc1ccc(Cn2c(=O)n(Cc3ccco3)c(=O)c3sc4ccccc4c32)cc1 | -3.62%
Cc1nc2c(C(=O)NCc3ccccc3)cnn2c(C)c1Cc1ccc(F)cc1 | -11.9%
O=c1c2cnn(-c3ccc(Cl)cc3)c2ncn1Cc1ccc(Cl)cc1Cl | -1.9%
CN1CCc2c(sc(/N=C/c3cc(C(C)(C)C)ccc3O)c2C#N)C1 | active: 89.5%
Cc1ccc(-n2nc(C(=O)N3CCN(c4cccc(C(F)(F)F)c4)CC3)c(=O)n(C)c2=O)cc1 | 0.382%
Cc1ccc(CNc2ccc(-c3nc(C(C)C)no3)cc2[N+](=O)[O-])cc1 | 15.6%
Cc1oc2ccc(O)c(CN3CCOCC3)c2c1C(=O)Nc1ccccc1 | -3.41%
COc1cc(NC(=O)CN2C(=O)C(c3ccc(C)cc3)=NC23CCCCC3)cc(OC)c1 | 5%
Cc1ccc(-n2c(=O)c3c(c4cc(C)ccc4n3C)n(CC(=O)Nc3c(C)cccc3C)c2=O)cc1 | -0.401%
O=C(CCSCCc1ccccn1)Nc1cc(F)ccc1F | 4.55%
CC(NC(=O)c1ccc2c(c1)N(Cc1cccc(F)c1)C(=O)c1ccccc1S2)c1ccccc1 (stereo unspecified) | 14.2%
CCCCN(C)CCNC(=O)c1c(C)oc2ncnc(N3CCOCC3)c12 | 3.11%
Cc1cccc(NC(=O)Cn2c(=O)n(CCC(C)C)c(=O)c3cccnc32)c1 | -10.1%
Cc1ccc(NC(=O)c2cnn(-c3ccc(C)c(C)c3)c2C2CCN(C(=O)OC(C)(C)C)CC2)c(C)c1 | -6.14%
COc1ccc(CNS(=O)(=O)c2cc3c(cc2C)n(C)c(=O)c(=O)n3C)cc1 | 4.56%
Cc1cc(C)c2nc(N3CCCC(C(=O)NCc4cccc(Cl)c4)C3)sc2c1 (stereo unspecified) | 12.4%
COc1cccc(NC(=O)c2nn(-c3ccc(C)cc3)c(=O)n(C)c2=O)c1 | 23.5%
CC(C)CN(CC(C)C)C(=O)C1CCCN(S(=O)(=O)c2ccc3c(c2)oc(=O)n3C)C1 (stereo unspecified) | 6.15%

SMILES | inhibition
COc1ccc(CCNC(=O)c2[nH]c(C)c(C(C)=O)c2C)cc1OC | active: 37.7%
CCc1ccc(CNC(=O)c2ccc3nc(SCc4ccc(F)cc4)n(C)c3c2)cc1 | 7.96%
Cc1ccc(NS(=O)(=O)c2ccc3c(c2)NC(=O)C(C)C(=O)N3)cc1F (stereo unspecified) | 25.5%
COc1ccccc1/C=C/CN1CCC(n2nccc2NC(=O)CCc2ccccc2)CC1 | active: 35.3%
Fc1ccc(/C=N/n2c(C3CCCCC3)n[nH]c2=S)cc1 | active: 50.2%
Cc1cccc(N2CCN(C(=O)c3cc4c(=O)oc5ccccc5c4s3)CC2C)c1 (stereo unspecified) | 5.84%
CCN1C(=O)c2ccccc2Sc2ccc(NC(=O)COc3ccc(Cl)cc3)cc21 | 5.59%
COc1ccc(C(=O)CC2(O)C(=O)Nc3c(C)cccc32)c(OC)c1OC (stereo unspecified) | -13.6%
CCOc1ccc(-n2c(SCC(=O)Nc3cccc(Cl)c3)nc3c(oc4ccccc43)c2=O)cc1 | 8.48%
CCOc1ccc(-c2cnc(NCc3ccc(C(F)(F)F)cc3)n2C)cc1 | 10.6%
CN1CCN(c2ncc3c(n2)CCN(Cc2cc(Br)cs2)C3)CC1 | -6.5%
COc1ccc(S(=O)(=O)NCCc2sc(C)nc2C)cc1F | 2.11%
Cn1c(=O)n(C/C=C/c2ccccc2)c(=O)c2c1nc1n2CCN1c1ccc(F)cc1 | 24.9%
Cc1ccc(C(=O)Nc2ccccc2)cc1S(=O)(=O)N1CCN(C)CC1 | active: 35.1%
Cc1cccc(OCCCCn2c(C3CC(=O)N(c4ccccc4Cl)C3)nc3ccccc32)c1 (stereo unspecified) | 2.22%
Cc1ccc(-c2nc3cc(NC(=O)c4cc5ccccc5o4)ccc3o2)cc1 | -1.11%
CC(=O)Nc1ccc(Oc2sc(C(=O)c3ccccc3)c(N)c2C#N)cc1 | active: 31.5%
O=C(Nc1cc(F)ccc1F)N1CCC(CN2CCOCC2)CC1 | -2.32%
COc1ccc(-n2cc(-c3ccccc3)c3c(NC4CCCCC4)ncnc32)cc1 | 12.5%
CCN1CCCC1CNC(=O)c1[nH]c2ccc(OC)cc2c1C (stereo unspecified) | active: 40.1%
O=C(NC1CCN(Cc2ccccc2)CC1)c1cccc(S(=O)(=O)Nc2ccc(F)cc2)c1 | active: 45.3%
CN(C)c1ccc(CNC(=O)C2CCCN(S(=O)(=O)c3ccc4c(c3)oc(=O)n4C)C2)cc1 (stereo unspecified) | 6.14%
CCc1nonc1NC(=O)c1oc2ccc(F)cc2c1C | 2.03%
CCCCC[n+]1ccn(-c2nc3ccccc3nc2[N-]S(=O)(=O)c2ccc(C)cc2)c1 | active: 37.7%

SMILES | inhibition
CC1=C(C(=O)Nc2ccc(Cl)cc2)C(c2ccccc2C)n2ncc(C(=O)Nc3ccc(C)cc3)c2N1 (stereo unspecified) | -3.35%
COc1ccc(CCNC(=O)C(=O)NCC(c2ccc3c(c2)OCO3)N2CCOCC2)cc1 (stereo unspecified) | 8.79%
COc1ccc(OC)c(-c2nc3c(C#N)c[nH]n3c2NC2CCCCC2)c1 | -0.641%
CN(C)c1ccc(CN(CC2CCCO2)C(=O)COc2ccccc2Cl)cc1 (stereo unspecified) | -13.6%
COc1ccccc1CNC(=O)Cc1c(C)c2c(cc(C)c3c(C)coc32)oc1=O | 6.88%
COc1ccc(N(CC(=O)NCc2ccc(F)cc2)S(=O)(=O)c2c(C)noc2C)cc1 | 2.15%
COc1ccc(C(=O)NCCc2cnc[nH]2)cc1OC | active: 34.9%
N#Cc1ccc(-c2cccs2)nc1SCc1c(F)cccc1Cl | -4.99%
Cc1ccccc1C(=O)N(Cc1ccc(N(C)C)cc1)Cc1ccco1 | 13.7%
COc1ccc(N2CCN(C(=O)CSc3n[nH]c(-c4ccccc4)n3)CC2)cc1 | -2.58%
COCCCNS(=O)(=O)c1cc(-c2onc(C)c2C)ccc1OC | -0.137%
Cc1c(C(=O)NCc2ccccc2)c(-c2ccccc2)nn1-c1ccccc1 | active: 35.9%
COc1ccc(-c2noc(CCC(=O)N(C)c3ccccc3C)n2)cc1 | -3.09%
CN(C)C(=O)c1ccc(NC(=O)Cn2nnnc2-c2ccccc2F)cc1 | -8.4%
COc1ccc(Nc2c3c(nc4ccc(NC(=O)/C=C/c5cc(OC)c(OC)c(OC)c5)cc24)CCCC3)cc1OC | -8.05%
O=C(Nc1ccc(-c2nc3cc(NC(=O)c4ccccc4Cl)ccc3o2)cc1)c1ccccc1Cl | -9.95%
O=C(CCc1nc2cccnc2n1Cc1cccs1)Nc1cccc(C(F)(F)F)c1 | 4.93%
NC(=O)c1ccccc1NC(=O)C1CCCN(c2ncnc3onc(-c4ccc(F)cc4)c23)C1 (stereo unspecified) | 12%
O=C(NN1CCN(Cc2ccccc2)CC1)c1ccc(Cl)cc1 | active: 67.1%
O=C(c1ccc(C(F)(F)F)cc1)N1CCC(c2noc(-c3ccc(S(=O)(=O)N4CCCC4)cc3)n2)CC1 | 18%
OC(C#CCN1CCCCCC1)(c1ccccc1)c1cccnc1 (stereo unspecified) | active: 58.3%
Cc1ccc(NC(=O)CN2C(=O)CCc3cc(S(=O)(=O)N4CCOCC4)ccc32)cc1N(C)C | 19.5%
COCCN=c1scc(-c2ccco2)n1/N=C/c1ccc(O)c(O)c1O | active: 76.9%
O=C(NC1CCCC1)c1ccc2c(c1)N(Cc1ccc(C(F)(F)F)cc1)C(=O)c1ccccc1S2 | -2.7%

SMILES | inhibition
Cc1ccccc1Cn1c(=O)n(Cc2ccc3c(c2)OCO3)c(=O)c2oc3ccccc3c21 | -4.36%
CCCN1CCC(NC(=O)Nc2cc(Cl)ccc2OC)CC1 | active: 84.9%
COc1ccc(NC(=O)Cn2c(C)c3cnn(-c4ccccc4)c(=O)c3c2C)c(OC)c1 | 8%
Cc1ccc(N(CC(=O)NC(C)c2ccccc2)S(=O)(=O)c2c(C)noc2C)cc1 (stereo unspecified) | 18.5%
Cc1cccc(-c2noc(C3CC(=O)N(c4ccc5c(c4)OCCO5)C3)n2)c1 (stereo unspecified) | -6.93%
CCOc1ccc(C2c3c(-c4ccccc4O)n[nH]c3C(=O)N2Cc2ccncc2)cc1 (stereo unspecified) | 9%
CCc1ccc(C(=O)c2cn(CC(=O)Nc3ccc(F)cc3)c3cc4c(cc3c2=O)OCO4)cc1 | 14.8%
Cc1cc(OCC(=O)Nc2sc3c(c2C(N)=O)CCCC3)ccc1C(C)C | 15.5%
COc1ccc(-c2nc(SCC(=O)NCCCc3ccccc3)n[nH]2)cc1 | 7.65%
Cc1ccc2occ(CC(=O)Nc3ccc(S(N)(=O)=O)cc3)c2c1 | -7.2%
CCN(CC)CCCNC(=O)c1oc2c(c1C)-c1nn(Cc3ccc(Cl)cc3)cc1CC2 | 14.9%
COc1ccc(NC(=O)CCc2c(C)nn(-c3ccc(N4CCOCC4)nn3)c2C)cc1Cl | -0.0244%
OCC1(Cc2cccc(F)c2)CCN(Cc2ccc3cccc(F)c3n2)CC1 | active: 39.9%
CC(C)(C)c1ccc(C(=O)Nc2ccccc2C(=O)OCc2cc(=O)n3ccsc3n2)cc1 | 12.7%
Cc1ccc(CN2CCN(C3CCN(C(=O)OC(C)(C)C)CC3)C(=O)C2=O)cc1 | 0.323%
CCOC(=O)CC(NC(=O)Cn1nnc(-c2ccccc2C)n1)c1ccc(OC)cc1 (stereo unspecified) | 2.46%
Cc1cc2nc3c(=O)n(C)c(=O)n(C)c3nc2cc1N=CN(C)C | -8.42%
CCC(=O)N1CCc2cc(Br)cc(S(=O)(=O)CCC(=O)Nc3ccccc3C)c21 | -5.22%
CC(C)C(=O)NCc1cc(-c2ccc(Cl)cc2)no1 | active: 41.7%
Cc1cc(C)c2c(=O)cc(CSCC(=O)Nc3nnc(C)s3)[nH]c2c1 | -3.67%
CCOC(=O)C1C(=O)Nc2nc(C)nn2C1c1ccccc1 (stereo unspecified) | active: 41.9%
CCCNC(=O)Nc1cc(C(=O)NCc2cccc(OCC)c2)ccc1N1CCCC1 | 10.2%
COc1ccc(N(C)C(=O)NCc2noc3ccc(C)cc23)c(OC)c1 | -6.63%
COc1ccc(C(=O)CCC(=O)Nc2ccccc2C)cc1 | -10.5%
